The supplement of paper PMC11417369
Some of the results follow.

Tested on: PF3D7_0420300 AP2 domain 1 (GST-tagged)
Assay: gcPBM binding intensity (ln(normalized median fluorescence intensity)); higher = stronger DNA binding
Procedure, shortened: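 Binding intensity is the highest Masliner-normalised natural-log median intensity over replicate spots in either probe orientation. To obtain it, GST-tagged P. falciparum DNA-binding domains made in E. coli were incubated for 1 h on an Agilent 4 × 180k array of primer-extended double-stranded 36-bp intergenic genomic probes plus negative controls. Detection used Alexa488 anti-GST antibody with scanning at 488 nm.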

Compared with “TTTAATTTTATATAGAGTACAAAAAAATAGAAAGAT [XGTACX_site3870]”, “ATATATATATATATATGTACATAAATATTTTAAAAT [XGTACX_site4980]” is lower in “gcPBM binding intensity (ln)” value: 9.38 for the first, 9.17 for the second.

First: TATTTGTAAATTATTTGGGTGTGTAGGGGATATTCT [XGTACX_negctrl_site204]
Second: TTTTTTTTTTTATTTGCATGCGGTGTTCATAATATT [TGCATGCA_site199]
The “gcPBM binding intensity (ln)” value of the first is higher: 9.63 for the first, 9.39 for the second.

Going from “CGTTCATATTATTATAGTACATATTATTATAGTTTT [XGTACX_site1550]” to “AGAAGAAAAGTAAAAAGTACATTATTCATGGCCTAT [XGTACX_site5601]”, the “gcPBM binding intensity (ln)” value falls from 9.47 to 9.23.

First: TTGGTGGATAAATTTACACACAATAACTTTCGTTCA [CACACA_site6358]
Second: ATATAAGAAATAAAGAAAAATGTGTTTTTTTTTTTT [XGTACX_negctrl_site396]
The “gcPBM binding intensity (ln)” value of the first is higher: 9.46 for the first, 9.13 for the second.

First: TTTATCTTATTTTTATGTACTTATTTTATAAAAAAA [XGTACX_site7730]
Second: AGAGCTGTTTTTTATGCATGTAGTTTAGAAAATACA [TGCATGCA_site257]
The “gcPBM binding intensity (ln)” value of the first is higher: 9.06 for the first, 8.94 for the second.

Compared with “AAACAAATATTTATCACAATGTCATTTTGTTAACAT [GTGCAC_negctrl_site171]”, “TTTTTCCTAACATATTATATACTTGAATATTTATTA [CACACA_negctrl_site156]” is lower in “gcPBM binding intensity (ln)” value: 9.21 for the first, 9.12 for the second.

Compared with “AACAAATTTATCCAAAGTACAAAATATCATTTCTTA [XGTACX_site4543]”, “AACAACATGTAGACGCGTACCAACATCAGATCCTAT [XGTACX_site4071]” is higher in “gcPBM binding intensity (ln)” value: 9.09 for the first, 9.47 for the second.

First: ATTATAATTATATATGCATGTAGCATTTTCTATTTT [TGCATGCA_site66]
Second: TATAAATACTAAAAAAGTACAAAATTTCATAAAAAA [XGTACX_site2709]
The “gcPBM binding intensity (ln)” value of the first is higher: 9.41 for the first, 9.13 for the second.

Going from “GGAAAATCTAATCATTTAATATTTATTTATCTAATT [GTGCAC_negctrl_site553]” to “ATTTTATATAATACATGTACAAAAGTTTAAATTTAT [XGTACX_site6196]”, the “gcPBM binding intensity (ln)” value falls from 9.13 to 9.1.

First: TTCTTTATTTATCATTATAAGAAGAGTTGATTTGTT [XGTACX_negctrl_site555]
Second: TTATAATATAGCAATTATTAAATAGGATCAAATGAA [CACACA_negctrl_site632]
The “gcPBM binding intensity (ln)” value of the first is lower: 9.13 for the first, 9.18 for the second.

First: TTATTAAATATGTACACACGTACATTTTATAAATGA [CACACA_site2387]
Second: TATATATATATTTAGTGTACTTAAAAAAAATAATAA [XGTACX_site5454]
The “gcPBM binding intensity (ln)” value of the first is higher: 9.01 for the first, 8.99 for the second.

Going from “ATAATAATAAAATATATATACAAAGGTGAAATTATA [TGCATGCA_negctrl_site197]” to “TATTTTTTTTTCCATTGTACATTTTTGATATTTTTC [XGTACX_site744]”, the “gcPBM binding intensity (ln)” value falls from 9.67 to 9.57.

Going from “CTTTGTAGTATATTAACACACAACTGTTTATAATAT [CACACA_site6038]” to “TATATACTCATGCGCACACACAAGTGGGAAATTTGG [CACACA_site5056]”, the “gcPBM binding intensity (ln)” value rises from 9.45 to 9.6.

First: TTCTTTAAAAAATTCGATAAAAAAAAAAAAAGAAAA [CACACA_negctrl_site242]
Second: ATATATTATAGGTACACACACATATAAGGGATTATA [CACACA_site6154]
The “gcPBM binding intensity (ln)” value of the first is lower: 8.84 for the first, 9.89 for the second.

First: ATATACATATATATTGCATGCAGAGAGTATTTATAA [TGCATGCA_site646]
Second: ATATATATATATATTGTGCACAAAAAAAAATAAGCA
The “gcPBM binding intensity (ln)” value of the first is lower: 9.27 for the first, 9.47 for the second.

Going from “GGAAAGACAGTTCACAGTACCCAGGAAATCTACGGA [XGTACX_site1996]” to “TTTTGGTTTTGTTCTACACACATAAAAAAAAAAAAG [CACACA_site2276]”, the “gcPBM binding intensity (ln)” value falls from 9.3 to 9.29.

First: TTTCTATTTATTAATACATGCAAAATAAAGTAAAGT [TGCATGCA_site209]
Second: ATATATCAATATGGAATATATATATATATATATATA [TGCATGCA_negctrl_site502]
The “gcPBM binding intensity (ln)” value of the first is higher: 9.39 for the first, 8.94 for the second.

Compared with “TATATATATATATATATATTTATGTATTTATTTAAT [TGCATGCA_negctrl_site179]”, “ATATATATAAATAAATGTACATAAATAATATATTAT [XGTACX_site5419]” is higher in “gcPBM binding intensity (ln)” value: 9.05 for the first, 9.33 for the second.

Going from “TTATTTTTATATTTTAATTTTAAAAAAATTTTAATT [CACACA_negctrl_site777]” to “ATTATACATATTATATGTACATATATAAATAAATAA [XGTACX_site7076]”, the “gcPBM binding intensity (ln)” value rises from 8.71 to 9.14.

First: TTTTATTATAATAATTGTACAAAAATTATTTAATAT [XGTACX_site6054]
Second: TTAATTTATTATCTTTGTACACAATTAAAAAAAAAA [XGTACX_site3469]
The “gcPBM binding intensity (ln)” value of the first is higher: 8.92 for the first, 8.79 for the second.

Compared with “ATAAATATACATTATACCGACCATGTGGATATTATA [XGTACX_negctrl_site241]”, “AAAAAAAAAAAAAAAAGTACAAGCATTGCGTTTTAA [XGTACX_site6075]” is lower in “gcPBM binding intensity (ln)” value: 9.37 for the first, 9.08 for the second.

First: GTATATATATACCATTGTACTTTCGTAAAAATATTT [XGTACX_site4846]
Second: AAAAAAAAAAAAAAAACACACATACACGCACGCACA [CACACA_site7569]
The “gcPBM binding intensity (ln)” value of the first is lower: 9.35 for the first, 9.72 for the second.

Compared with “AGAAAAAAAAAAAAAAAAATATATATATATATATAT [TGCATGCA_negctrl_site411]”, “ATGCAAATGTGCATCACACACACTAATGGGTATGTA [CACACA_site2893]” is higher in “gcPBM binding intensity (ln)” value: 8.89 for the first, 9.54 for the second.

First: GGAATATATATACATACACACATATATATATATATA [CACACA_site1666]
Second: AAAAATAATTATTCGTGTACAAAAAAAAAAATATAA [XGTACX_site439]
The “gcPBM binding intensity (ln)” value of the first is higher: 9.39 for the first, 9.27 for the second.

Going from “ATTTTTTATGTTAATGCATGCTCATGTGTATTTCAT [TGCATGCA_site751]” to “AGATATTATAAAATATGTACATATATATATATATAT [XGTACX_site2088]”, the “gcPBM binding intensity (ln)” value falls from 9.53 to 9.09.

Compared with “TAATTAGATTATTTTTGTACATATTATTATAGGTTA [XGTACX_site2077]”, “AGCTTCATATTATGGAGTACTATTAAAAATAAATAA [XGTACX_site2649]” is lower in “gcPBM binding intensity (ln)” value: 9.18 for the first, 8.86 for the second.

Compared with “AAATATAACATCATCACACACATATACTTTATATGC [CACACA_site1126]”, “AAAGTAATAATGATTTGTACATATATATATATATAT [XGTACX_site8821]” is lower in “gcPBM binding intensity (ln)” value: 9.79 for the first, 9.18 for the second.

Going from “TTATCTTTTTTCGTTTGTACGTAACCATATTACTAT [XGTACX_site8853]” to “ACGATGAATATGTAAAGTACGCAAATGTAACAATAT [XGTACX_site728]”, the “gcPBM binding intensity (ln)” value rises from 9.37 to 9.54.

Going from GTAGTTACATATAGGGTGCTCCAATAGTTGACCTCG to “TCATAGGTTCAAAAGGGTACATTAATACATACATAT [XGTACX_site2236]”, the “gcPBM binding intensity (ln)” value rises from 8.96 to 9.25.

Going from “AAATAAAAAAAGGGAACATGCAATATGTACAAATAT [TGCATGCA_site869]” to “CATATATATTGATATGCACACCTATGTATTGATGTA [CACACA_site8269]”, the “gcPBM binding intensity (ln)” value falls from 9.67 to 9.44.

First: AGCATTTTTCATTTTGCACACATGTTTTATGGGTAT [CACACA_site5839]
Second: TCTTTTTTCTTTTTTTCACACATTATTTTTTAAATA [CACACA_site5197]
The “gcPBM binding intensity (ln)” value of the first is higher: 9.65 for the first, 9.54 for the second.

Going from “TATATGGAAAATTAAAGTACTAAAGAATAAATAGAA [XGTACX_site8796]” to “TATAAAATAAATTGTGCACACATATTTATAAATATG [CACACA_site2330]”, the “gcPBM binding intensity (ln)” value rises from 9.35 to 9.49.

Compared with “TATAGATACATATACACACACACACCGACATATATA [CACACA_site9138]”, “AATAATAGAAGCACCCACCCACCACCACCCACACAT [CACACA_negctrl_site1033]” is higher in “gcPBM binding intensity (ln)” value: 10.3 for the first, 11.1 for the second.

Compared with “GAGAAACTTGTTTAAACATGCACAAAAAAAAAAAAA [TGCATGCA_site340]”, “AAATTACACATCCATACACACATATTTTTTTTAATT [CACACA_site5242]” is higher in “gcPBM binding intensity (ln)” value: 8.92 for the first, 9.77 for the second.

First: GTATATATGTATATGTGTACACATATTCTTAACTCA [XGTACX_site309]
Second: ATATAAATTGGCAATAGTACATAAAGGCATAGAAAG [XGTACX_site2674]
The “gcPBM binding intensity (ln)” value of the first is lower: 9.42 for the first, 9.69 for the second.

First: AGCTGAAAAAAAAGCTTGCACACGTATTTGCTTTAT [CACACA_site1512]
Second: TTTTTTTGTTATATCCTGCACTTCTTAACTATATTA [GTGCAC_site9807]
The “gcPBM binding intensity (ln)” value of the first is lower: 9.42 for the first, 9.55 for the second.

Going from “AATAATAAGAATAACGCATGCACATATAATATAGAA [TGCATGCA_site3]” to “CATATTATATTCTGCTTACACACATATATATATATA [CACACA_site3059]”, the “gcPBM binding intensity (ln)” value rises from 9.7 to 9.79.

Going from “GTTTTTTATATAAGGTGGTCAACATTGTAATGTTAA [XGTACX_site3204]” to “AATATGTAGTAATCAAGTACTAATGTCTTAATTCGG [XGTACX_site308]”, the “gcPBM binding intensity (ln)” value rises from 9.17 to 9.27.

First: TAATGATAAATACATACACACAAAAAATGATATATA [CACACA_site7258]
Second: TATATCCCTTAGAATACACACCCATATGAGTGTGAA [CACACA_site8965]
The “gcPBM binding intensity (ln)” value of the first is higher: 9.74 for the first, 9.25 for the second.

Going from “AATGTAAAATCTTCATATACATTTAAGTCTGTATTT [TGCATGCA_negctrl_site183]” to “ACAAAAATTAAATAAAGTACATTTTTAAAATACGTA [XGTACX_site3880]”, the “gcPBM binding intensity (ln)” value falls from 9.17 to 9.13.

“AAAAGCACAAAAAATACACACACAAAAAATAAAAAA [CACACA_site8545]” and “TTAACAAATAAACACACACACACACCCAAAAAAAAA [CACACA_site8068]” are the same in “gcPBM binding intensity (ln)” value: 10.1 for the first, 10.1 for the second.

First: ATAAAAAAAAAAACAGTAAAATTATAATTATAATTA [TGCATGCA_negctrl_site356]
Second: TATTTTATTATTATTATTTCTTTATAGTGTATTCTA [CACACA_negctrl_site517]
The “gcPBM binding intensity (ln)” value of the first is higher: 9.27 for the first, 9.19 for the second.

First: TTTTCGTAACTGATTCAACACACAAAAGGGGGAAAA [CACACA_site8517]
Second: AATATATAGCTAAAAACACACAAATATATACACATA [CACACA_site9203]
The “gcPBM binding intensity (ln)” value of the first is lower: 9.51 for the first, 9.72 for the second.

Going from “GGATAGGCATAACATAGTACGTACAAATATATATAT [XGTACX_site454]” to “TATTTTATTATTATTATTAGTATGATTTCTTTATAG [CACACA_negctrl_site550]”, the “gcPBM binding intensity (ln)” value falls from 9.49 to 9.02.
